In all, about 310,000 compounds went through this assay and about 2,200 (0.71%) showed an effect of 50% or more. Effects have a minus sign here. The list shows a part of the results.
Each compound was assayed against human ether-à-go-go-related gene (hERG) potassium channel (human, UniProt Q12809) (assay: primary screen, population patch clamp on CHO cells stably expressing hERG).
Sequence of human ether-à-go-go-related gene (hERG) potassium channel (Q12809 whole entry, looked up): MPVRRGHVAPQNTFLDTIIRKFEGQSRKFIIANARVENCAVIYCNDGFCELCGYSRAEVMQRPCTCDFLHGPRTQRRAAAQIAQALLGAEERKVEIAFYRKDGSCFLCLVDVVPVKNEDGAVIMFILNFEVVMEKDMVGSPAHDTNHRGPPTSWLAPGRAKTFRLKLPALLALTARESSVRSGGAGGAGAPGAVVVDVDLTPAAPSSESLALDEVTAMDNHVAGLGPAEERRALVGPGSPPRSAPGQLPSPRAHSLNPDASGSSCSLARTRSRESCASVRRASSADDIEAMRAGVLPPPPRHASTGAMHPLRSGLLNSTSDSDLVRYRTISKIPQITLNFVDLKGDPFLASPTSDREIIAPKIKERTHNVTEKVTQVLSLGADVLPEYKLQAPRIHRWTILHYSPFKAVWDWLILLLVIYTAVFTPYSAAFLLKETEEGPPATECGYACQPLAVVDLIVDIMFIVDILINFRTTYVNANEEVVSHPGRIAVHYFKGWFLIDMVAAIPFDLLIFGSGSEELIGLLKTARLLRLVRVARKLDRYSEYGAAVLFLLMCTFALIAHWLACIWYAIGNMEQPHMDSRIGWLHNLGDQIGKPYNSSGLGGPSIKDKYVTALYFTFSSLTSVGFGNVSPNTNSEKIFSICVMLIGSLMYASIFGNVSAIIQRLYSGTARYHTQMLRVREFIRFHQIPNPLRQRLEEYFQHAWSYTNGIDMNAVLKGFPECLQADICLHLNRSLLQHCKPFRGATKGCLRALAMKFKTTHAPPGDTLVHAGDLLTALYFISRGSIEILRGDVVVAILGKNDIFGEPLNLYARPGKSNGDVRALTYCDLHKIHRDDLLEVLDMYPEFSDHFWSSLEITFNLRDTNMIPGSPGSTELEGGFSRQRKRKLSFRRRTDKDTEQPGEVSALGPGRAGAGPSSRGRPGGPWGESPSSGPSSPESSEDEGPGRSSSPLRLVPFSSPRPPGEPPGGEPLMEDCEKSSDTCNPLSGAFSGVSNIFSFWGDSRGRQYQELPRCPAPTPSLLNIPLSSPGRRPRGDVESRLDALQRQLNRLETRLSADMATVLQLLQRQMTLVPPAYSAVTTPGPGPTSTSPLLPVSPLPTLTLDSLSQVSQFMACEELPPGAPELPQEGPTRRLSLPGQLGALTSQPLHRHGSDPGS
For Fc1ccc(-c2ccc(/C=N/n3cnnc3)o2)cc1, the “hERG current change (%, negative = inhibition) at 1uM” value was 7.73%.
With CCS(=O)(=O)N1CCC(C(=O)N2CCOCC2)CC1 the “hERG current change (%, negative = inhibition) at 1uM” value was 15.1%.
C=CCNc1nc(-c2cc3ccccc3o2)cs1 was tested, and the “hERG current change (%, negative = inhibition) at 1uM” value was 7.97%.
In the case of COc1ccc(/C(C)=N/NC(=O)CNC(=O)c2cccs2)cc1, the “hERG current change (%, negative = inhibition) at 1uM” value is reported as 7.37%.
COc1ccccc1C(=O)Nc1ccccc1N1CCN(S(C)(=O)=O)CC1 was tested, and the “hERG current change (%, negative = inhibition) at 1uM” value was -7.72%.
In the case of Cc1ccccc1SCC(=O)NNC(=O)c1ccncc1, the “hERG current change (%, negative = inhibition) at 1uM” value is reported as 3.18%.
For N=c1c2c(-c3ccccc3)c(-c3ccccc3)n(Cc3ccco3)c2ncn1CCCN1CCOCC1, the “hERG current change (%, negative = inhibition) at 1uM” value was -91.3%.
CCCCNS(=O)(=O)c1ccc(OCC(=O)N2CCN(Cc3ccc4c(c3)OCO4)CC2)cc1 was tested, and the “hERG current change (%, negative = inhibition) at 1uM” value was -3.5%.
For OC(CNc1nc2ccccc2s1)c1ccccc1 (stereo not drawn), the “hERG current change (%, negative = inhibition) at 1uM” value was 3.87%.
In the case of Cc1ccccc1C(O)c1ccccn1 (stereo not drawn), the “hERG current change (%, negative = inhibition) at 1uM” value is reported as 17.2%.
For C=C(C)[C@H]1CC=C(C)C(=O)C1, the “hERG current change (%, negative = inhibition) at 1uM” value was 14.4%.
With N#Cc1ccc(OCC(=O)OCC(=O)Nc2ccc(N3CCOCC3)cc2)cc1 the “hERG current change (%, negative = inhibition) at 1uM” value was -0.974%.
For CC(C)N(C(=O)Cn1c(Cl)nc2ccccc21)C(C)C, the “hERG current change (%, negative = inhibition) at 1uM” value was 7.66%.
For O=C(CN1C(=O)C2C3C=CC(C3)C2C1=O)NCCc1ccccc1 (stereo not drawn), the “hERG current change (%, negative = inhibition) at 1uM” value was 11.7%.
For N/C(=N\OC(=O)c1cccc2ccccc12)c1cccc([N+](=O)[O-])c1, the “hERG current change (%, negative = inhibition) at 1uM” value was 10.2%.
O=C(NC(=S)NCc1nc2ccccc2[nH]1)c1ccc(F)cc1 was tested, and the “hERG current change (%, negative = inhibition) at 1uM” value was 6.9%.
For O=C(CSc1ncccn1)n1c2c(c3ccccc31)CCCC2, the “hERG current change (%, negative = inhibition) at 1uM” value was 7.64%.
For O=C1C=C(c2ccccc2)C[C@@H](c2ccc3c(c2)OCO3)C1, the “hERG current change (%, negative = inhibition) at 1uM” value was 11.4%.
With Oc1cccc2cnccc12 the “hERG current change (%, negative = inhibition) at 1uM” value was 7.8%.
In the case of C/C(O)=c1/ccc2cccc3nc(C)nc1c23, the “hERG current change (%, negative = inhibition) at 1uM” value is reported as 7.91%.
CC(=O)Nc1ccc2nc(SCC(=O)N3CCOCC3)sc2c1 was tested, and the “hERG current change (%, negative = inhibition) at 1uM” value was 17.4%.
CC(=O)N1CCN(S(=O)(=O)c2cccc(C(=O)Nc3ccccc3N3CCOCC3)c2)CC1 was tested, and the “hERG current change (%, negative = inhibition) at 1uM” value was 7.37%.
With COc1ccc(CCCC(=O)O)c(C)c1 the “hERG current change (%, negative = inhibition) at 1uM” value was 20.9%.
Cl.O=C(CN1CCCCC1)NCC1(c2ccccc2)CCCC1 was tested, and the “hERG current change (%, negative = inhibition) at 1uM” value was 5.17%.
For CCCCc1nnc(NC(=O)CCS(=O)(=O)Cc2ccccc2)s1, the “hERG current change (%, negative = inhibition) at 1uM” value was 15.5%.
For O=C(COc1ccc(Cl)cc1)NCc1nnc(SCC(=O)NCC2CCCO2)o1 (stereo not drawn), the “hERG current change (%, negative = inhibition) at 1uM” value was 10.9%.
For CCN(CC)S(=O)(=O)c1cc(-c2nnc(-c3ccc(Br)cc3)o2)ccc1Cl, the “hERG current change (%, negative = inhibition) at 1uM” value was -1.98%.
